According to the supplement of paper PMC11417369:
± gives the standard deviation of the averaged measurements. The list shows a part of the results.

test system: PfAP2-G AP2 domain (GST-tagged); test: gcPBM binding intensity (ln(normalized median fluorescence intensity)); higher = stronger DNA binding
Summary of the method: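 The binding buffer was 1× PBS containing 1% milk, 0.2 mg/ml BSA, 0.5% salmon testes DNA and 0.03% Triton X-100. In it, GST-tagged P. falciparum DNA-binding domains expressed in E. coli were applied for 1 h to an Agilent 4 × 180k array of primer-extended double-stranded 36-bp intergenic genomic probes plus negative controls. Binding intensity, read with Alexa488 anti-GST antibody and a 488 nm scan, is the highest Masliner-normalised natural-log median intensity across replicate spots of either probe orientation.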

Sequence	gcPBM binding intensity (ln)
AGCTATATAAATAATACATGCATTGTTCAGGTATTT [TGCATGCA_site964]	9.74 ± 0.21
TACATAAATTAATAGTCACACACGTATTTTTTATAT [CACACA_site8806]	10 ± 0.13
TAGTTCCTCAAAAATTTCCTTTGTCATTTTATTCAC [GTGCAC_negctrl_site20]	10.17 ± 0.085
TATGGAATAAATTTATCCATACATCTTATAACATAT [XGTACX_negctrl_site500]	9.885 ± 0.049
TAAAGAAATTCTTCATGTACTTATTATTTCTCTTTT [XGTACX_site6817]	11.2 ± 0.72
GTTATACAAAATAATACATGCATGTCCTACATATAT [TGCATGCA_site320]	10.9 ± 0.68
TCTATAATATTTTTCACACACCATTTCCTTAAACAC [CACACA_site6747]	10.3 ± 0.33
AAAAAAATAAAATACAAAATGGCTATACAAAATAAA [GTGCAC_negctrl_site535]	9.78 ± 0.16
TTTGTTGACGAACACACACACATACATATTTATATA [CACACA_site7141]	10.3 ± 0.14
TACACGCATAAACACACACACACACCCATATATATA [CACACA_site8114]	10.1 ± 0.24
TTTATATTTAAAGAAACATGCATTTATCATATATAC [TGCATGCA_site173]	9.73 ± 0.071
CAATTTATAAAGAAAACACACATATACCTATATACA [CACACA_site6710]	10.13 ± 0.014
ATTTAAAAAAAAAGACGTACATTTATATAGAATCCT [XGTACX_site6457]	11.5 ± 1
ATTTTTTTATTTTGAAGTACATAAACTTTATATATA [XGTACX_site1746]	11.4 ± 0.91
ATTACATATGTCGCTTGTACGCATAATTTTTTTATA [XGTACX_site5782]	11.6 ± 1
ATTACCAAAAAAAGGTGTACAAATATAATTATGAAA [XGTACX_site44]	11.5 ± 0.8
AAAAAATATACATATTGTACATTTTTTATTAACACA [XGTACX_site6415]	10.8 ± 0.49
ATAAATTTACATTTTTTTTTTTTTTTTTTTTTTTTT [GTGCAC_negctrl_site689]	10.9 ± 0.66
GTATAGTACAAATAAGTGCATATAAAAGAAATACAG	10.9 ± 0.49
TAATTTTTATTCAGTTCACACACGCTTTAATATTAT [CACACA_site9147]	10.2 ± 0.12
TAGTAATATGTATCCATACACACATACATTTTATTT [CACACA_site873]	10.13 ± 0.092
TTTTCCTTTCACAATGGTACACAAATATACATGCAA [XGTACX_site7244]	11.2 ± 0.8
ATTTTTTTTCGTAATTGTTCTTAATGTTGAATTATA [CACACA_negctrl_site1135]	9.9

Sequence	gcPBM binding intensity (ln)
ATTTAAAATAGAAGTTATATTTATATGGGTGAAAAA [GTGCAC_negctrl_site296]	9.94 ± 0.071
GGAATAACCGGACACACACACACATATATATATATA [CACACA_site5874]	10.5 ± 0.15
GTACACCTATAATATACACACAACAAATATGCACAT [CACACA_site6603]	11.1 ± 0.44
ATTATATATATATATACACACACATATATATATATA [CACACA_site8373]	10.1 ± 0.46
ATCTTATATATATGTGTGCACGTATATATAAGCAAT [GTGCAC_site9933]	10.4 ± 0.25
TTATTCATACAATATCGTACATATATATATATATAT [XGTACX_site1185]	11 ± 0.69
TCTAATCTGGAGAAAAGTACATAGTATCTGGTAACA [XGTACX_site2540]	11.2 ± 0.8
AAAAAAATACAAATATGTACACATATATATTTAAAA [XGTACX_site4729]	11.5 ± 1.1
AAATAAAATATGAACAGTACTTTTGATATAACCATT [XGTACX_site1873]	11 ± 0.67
TTATAAATAAAAAGAGTGCAATTATAAATATATATA	10.1 ± 0.23
GTATGTATGTATGTATGTACTTATTTATTTATTTAT [XGTACX_site1921]	11.3 ± 0.84
ACCTTTAATATATACACACACATAAAAAAAATATAT [CACACA_site1843]	10.3 ± 0.3
AAATATTCATAGTATACACACATTTATTTATAACCA [CACACA_site6502]	10.03 ± 0.071
TAAATTTAAAATGACACACACTAAAATTATTTAAGT [CACACA_site4816]	10.05 ± 0.021
CTGTTTTTACTAAGTTGTACAAATGATGATACCCTA [XGTACX_site630]	11.3 ± 0.63
ATACAATAATATAAATGTACAAATTATATCTTAATT [XGTACX_site6004]	10.7 ± 0.16
CTATATTTTTAAAAATGTACTTTATAATAAAATACT [XGTACX_site3593]	11.1 ± 0.74
TAAAAGTATTCCTTTTGTACATATAATGAAAACAAT [XGTACX_site2069]	10.9 ± 0.51
TTCAATTTTACATGTAGTACATAAATTATACACAAA [XGTACX_site4946]	11.6 ± 0.86
TTATTCCTATTTGGATGTACATTTTAATATAAACAT [XGTACX_site4386]	11.1 ± 0.63
TTTTTTAATTTTACATGTACATACAGGTTTTTTTTT [XGTACX_site4539]	11.2 ± 0.65
AAAAAAGAAAAGAAATGTACAGAGCTTATCTTTTTA [XGTACX_site5677]	10.6 ± 0.45
AAAAAATTGTTTCCCTGTACTCAAAAAAAAAAAAAA [XGTACX_site8070]	11.4 ± 1.1

Sequence	gcPBM binding intensity (ln)
AATGATAAAAATAAATGTACAGAATGATATTTTTTT [XGTACX_site5976]	10.8 ± 0.4
ATTAATAAATAAATGACACACACACCCACAAAAAAA [CACACA_site8839]	10.5 ± 0.46
GTTTTTTTTTTTTTGGTGCGTCATTTTCAAAAGAAG [GTGCAC_site9745]	10.4 ± 0.2
TAAAATTTACGGTCTTGTTGCGCAACCAACATTGTC [CACACA_negctrl_site1175]	10.7 ± 0.42
TAATAATAGTAAATATGTACATATATATATATATAG [XGTACX_site4602]	11.2 ± 0.59
TTAGTAGTATTATGTAGTACATAATTATCATATCAT [XGTACX_site817]	11.6 ± 1.1
ACTTAATTTTTTTTATGTACTTATTTAAAAAATTTT [XGTACX_site2712]	11.4 ± 0.8
CTTAAAGGGAAAAATACACACATATAAATATTATGT [CACACA_site2225]	9.875 ± 0.035
TTTTTTGAATTTAAAAGTACAGGCTTTTACCAAATA [XGTACX_site1356]	11.3 ± 0.91
ATAAATAAATAAATCTGTACATATGTATATGTATAT [XGTACX_site4537]	10.9 ± 0.45
AATTAAAAAAAAAAAAAAAAAAAAAAATGAAAAAAA [CACACA_negctrl_site1073]	9.44 ± 0.057
AAAAAAAAAAAAAAAAGTACATACAACATTATGAAA [XGTACX_site207]	11.4 ± 0.7
TAATTATTTTTATATTGTACAATATGTAAATATATA [XGTACX_site592]	10.8 ± 0.58
AAAAAAGAAAAAAAGTGTACAATATTTATTACATAT [XGTACX_site2277]	11.3 ± 0.83
ATAATCCTTGGACACACACACACACTAGTAAATAAA [CACACA_site4423]	10.9 ± 0.57
AACCCAAAATAATTATGTACATATTTTTAAATATAT [XGTACX_site6487]	11.3 ± 0.77
TTTGTGTATATAACAGTGCAATATTATAAATATAAA [GTGCAC_site9750]	9.955 ± 0.092
GCAAAGCACAAATATGCATGTAGATATAGAATAATG [TGCATGCA_site382]	9.87 ± 0.11
CATTATATATATTACTAAAAATTTTACCCCTTAGCT [CACACA_negctrl_site302]	10.1 ± 0.15
ATGTATATAAATATACGTACATAAATATAAGTATAG [XGTACX_site7155]	11.5 ± 0.91
ATACATGAATAAATATGTACACATATAAAAACATAT [XGTACX_site2740]	11.5 ± 0.88
TATATTTCATTATATTGTACAAAATATATATATTAT [XGTACX_site4644]	10.7 ± 0.4
TTTTTTCTTTTTATGTGTACTTATTTTATTTAATAA [XGTACX_site1080]	11.7 ± 1.1

Sequence	gcPBM binding intensity (ln)
ATTATTTGAACAACAAAAAAAAAGAAAAGAAAAGAA [CACACA_negctrl_site1031]	10.11 ± 0.042
TCATATTATAAATAAATAAATAAATATATATATATA [CACACA_negctrl_site577]	9.72 ± 0.46
AAATCGTAATATATTTGTACTTATTTGAAAAATCCA [XGTACX_site8141]	11.1 ± 0.72
TTTTAACAAAACTAAATAATCATATATATAAGATAT [GTGCAC_negctrl_site298]	9.59 ± 0.13
CATTTCTATATAAGCACACACGTGGAATTTTTTTTT [CACACA_site5537]	10.23 ± 0.057
TTTTTTTTCTTTTTTTTAAGAAATAAATAAATAATT [XGTACX_negctrl_site137]	9.66 ± 0.35
AACACGCGCAGACACACACACACACGCACATATATA [CACACA_site7104]	10.5 ± 0.33
ATATACTTTTCAATGTGTACTTATGAATATATATGT [XGTACX_site7972]	11.5 ± 0.83
TATTTTCAAAATGTTGTACACACAAAAAAAAAAAAA [CACACA_site8437]	11.5 ± 1.1
TTATTTCTAACATGATGTACTTTTATATTATATAAT [XGTACX_site3574]	11.2 ± 0.88
TTTTTTTTATATATCTGTACATATATATATATATAT [XGTACX_site8280]	11 ± 0.68
TATTTATAAATATGTGTGCACAATTTATTTTATAAT	10.4 ± 0.2
ATATTAAATATTATCACACACATAATTATTTCCATA [CACACA_site2334]	9.96 ± 0.071
CACTTAAAAAGCTAACGTACAAATACACATATATAA [XGTACX_site1851]	11.1 ± 0.61
AAAAACAATTTAATCACACATATATGTCACAAAGAT [CACACA_site5043]	10.125 ± 0.007
TAATAATAGAAACACACACACATAGACATATATATA [CACACA_site1307]	9.79 ± 0.042
ATGATTATACAAAATATACACACGTGTAGACAAATA [CACACA_site1175]	10.3 ± 0.11
ATATATATATATATATGTACATACATATTGTTTGGT [XGTACX_site2284]	11.1 ± 0.46
CAAAATATTTTTTCCTGTACATAATTCCTATTTCAC [XGTACX_site3590]	11.1 ± 0.59
ATATAATAATATGGTTGTACATAAATAACACATGAA [XGTACX_site6592]	11.3 ± 0.66
